This is one part of the list. Further columns of the screen follow, without active or inactive calls.
target: SUMO-conjugating enzyme UBC9 (Homo sapiens) (UniProt P63279); test: blockers of SAE1/SAE2–UBC9 SUMO transfer – biochemical, HTRF, uHTS, primary screen (AID 2006); settings: HTRF SUMOylation assay, SAE1/SAE2 + UBC9, in vitro; average of repeat tests; at 35 µM; stronger effect = higher value
Sequence of UniProt P63279 (P63279 whole entry, looked up): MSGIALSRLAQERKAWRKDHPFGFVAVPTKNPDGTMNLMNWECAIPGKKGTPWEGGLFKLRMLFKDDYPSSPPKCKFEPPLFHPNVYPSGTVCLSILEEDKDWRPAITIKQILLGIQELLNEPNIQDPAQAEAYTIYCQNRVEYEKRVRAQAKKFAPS

SMILES | inhibition
CN1CCN(c2ccc3nccnc3c2)CC1 | 42.8%
CCCNC(=O)c1c(N)n(CC2CCCO2)c2nc3ccccc3nc12 (centres undefined) | 34.5%
O=C1NC(=O)N(Cc2ccco2)C(=O)/C1=C\c1cccn1CCOc1ccc(Cl)cc1 | 34%
CCCCn1c(NS(=O)(=O)c2ccccc2)c(C(=O)OCC)c2nc3ccccc3nc21 | 75.5%
O=c1[nH]c(O)c(/C=C2/C=CC(c3cc(Cl)ccc3Cl)=N2)c(=O)[nH]1 | 69.3%
COc1cc(C(c2c(C)[nH]n(-c3ccccc3)c2=O)c2c(C)[nH]n(-c3ccccc3)c2=O)cc(OC)c1OC | 61.3%
Cc1ccccc1-n1c(O)c(/C=N/NC(=O)c2ccccc2O)c(=O)[nH]c1=S | 39.9%
CN1CCC2(CC1)C(C#N)=C(N)NC(S)=C2C#N | 98.2%
O=C(O)c1ccc2c(c1)C1C(Cl)C(Sc3ccccc3[N+](=O)[O-])CC1C(c1cccc([N+](=O)[O-])c1)N2 (centres undefined) | 55%
Cc1cc(/C=C2\C(=O)NC(=O)N(Cc3ccccc3)C2=O)c(C)n1-c1ccc(Cl)c(C(=O)O)c1 | 77.8%
Cc1ccsc1C(=O)C1CCCN(Cc2ccc(-n3cccn3)cc2)C1 (centres undefined) | 63.5%
N#C/C(=C(/O)c1ccc(S(=O)(=O)N(CCCl)CCCl)cc1)c1nc2ccccc2[nH]1 | 44.4%
O=C1NC(=O)N(Cc2ccco2)C(=O)/C1=C/c1ccc(-c2cccc([N+](=O)[O-])c2)o1 | 66.4%
CC(C)OCCCNC(=O)c1c(N)n(CC2CCCO2)c2nc3ccccc3nc12 (centres undefined) | 34.8%
CCCCn1c(N)c(C(=O)OCCOC)c2nc3ccccc3nc21 | 36%
CCCCn1c(NS(=O)(=O)c2ccc(C)cc2)c(C(=O)OCC)c2nc3ccccc3nc21 | 61.2%
O=C(O)c1cccc2c1NC(c1cccc([N+](=O)[O-])c1)C1CC(Sc3ccccc3[N+](=O)[O-])C(Cl)C21 (centres undefined) | 87.9%
O=C(N/N=C/c1c(O)n(Cc2ccco2)c(=O)[nH]c1=O)c1ccccc1O | 50.5%
CCCCNC(=O)c1c(N)n(CCCOC)c2nc3ccccc3nc12 | 35%
O=C(c1cccn2c(=O)c3ccc(Cl)cc3nc12)N1CCC2(CC1)OCCO2 | 51.5%
O=c1[nH]c(O)c(/C=C2\C=Nc3ccc(OCc4ccccc4)cc32)c(=O)[nH]1 | 43.3%
O=C(O)CC1OCC=C2CN3CCC45C6=CC(=O)C(=O)C([N+](=O)[O-])=C6NC4C1C2CC35 (centres undefined) | 96.9%
CN1C[C@H](CO)C=C2c3cccc4[nH]cc(c34)C[C@H]21 | 41.4%
O=C1NC(=S)NC(=O)C1=Cc1cccn1-c1ccc(O)cc1 | 60.1%
